In all, about 43,000 compounds went through this assay and about 200 (0.47%) were called active. This list was built around the results that the source calls inconclusive (neither active nor inactive); the mix of calls is not that of the screen. Calls follow the shape of the dose curve; as a rule, active = well fitted cell-killing curve with a large enough effect; inconclusive = small, poorly fitted or top-dose-only effect, or effect the other way; inactive = flat fitted curve, though single readings scatter. A potency beside an inconclusive call is a rough fit, not a confirmed value.
Experiment: Cell viability qHTS assay in S16 Pmp22-F2sN cells; also: nearly all actives have a fitted effect of over 65% in size
Conditions: S16 Pmp22-F2sN Schwann cells viability, CellTiter-Glo, 24 h; activity change, negative = cytotoxicity: at 57.5 µM (top of the series)
In short: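 Viability was measured by CellTiter-Glo luminescence (15 min, room temperature). This followed 24 h at 37 °C of compound exposure (23 nL pin transfer) in S16 Pmp22-F2sN Schwann cells, 500-1,000 per well.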
% is scaled to controls: 0 for no effect and ±100 for the full control effect; potency is read from the fitted curve at half-maximal effect; tags tell the direction and shape of the fitted curve.

Row | SMILES | Potency | activity change, negative = cytotoxicity
1 | Cc1ccc(NC(=O)N2CCC3(CC2)Oc2ccccc2C(=O)N3Cc2ccc(F)cc2)cc1 | inconclusive: 39.8 µM [cytotoxic, partial curve, poor fit] | –
2 | Fc1ccc(-c2cc(-c3nc(-c4ccc(Cl)cc4)no3)[nH]n2)cc1 | inconclusive: 31.6 µM [cytotoxic, single point] | –
3 | O=C(Cn1cc(SCc2cccc(Cl)c2)c2ccccc21)N1CCCCC1 | inconclusive: 22.4 µM [cytotoxic, partial curve, poor fit] | –
4 | O=C(NCc1ccccc1)c1cnc2sc(N3CCCC3)nn2c1=O | inconclusive: 0.0355 µM [rising, full curve, poor fit] | –
5 | COc1cc(OC)c(NS(=O)(=O)c2c(C)nc3sc(C)cn3c2=O)cc1Cl | inconclusive: 25.1 µM [cytotoxic, single point] | –
6 | COc1ccccc1CNc1ncnc2onc(-c3ccc(F)cc3)c12 | inconclusive: 39.8 µM [cytotoxic, single point] | –
7 | O=C(/C=C/c1ccccc1)Nc1nc2n(n1)C(c1ccc(Cl)cc1)C=C(c1ccccc1)N2 (stereo not drawn) | inconclusive: 0.0631 µM [rising, full curve, poor fit] | –
8 | CCc1nc2ccccc2n1CCCCOc1cccc(C)c1 | inconclusive: 22.4 µM [cytotoxic, partial curve, poor fit] | –
9 | CCOC(=O)c1cc(-c2ccccc2)n(CCCC(=O)Nc2cccc(C)c2)c1C | inconclusive: 39.8 µM [cytotoxic, single point] | –
10 | Cc1ccc(Cl)cc1NC(=O)c1nnn(Cc2ccccc2)c1N | inconclusive: 3.55 µM [cytotoxic, single point] | –
11 | COc1cccc(CNC(=O)C2CCN(Cc3cc4ccccc4n3Cc3ccccc3)CC2)c1OC | inconclusive: 39.8 µM [cytotoxic, single point] | –
12 | COc1ccc(S(=O)(=O)Nc2cc(-c3cn4ccc(C)cc4n3)ccc2C)cc1OC | inconclusive: 28.2 µM [cytotoxic, partial curve, poor fit] | –
13 | Cc1ccc(NCc2cc3cc4c(cc3n(CC(=O)Nc3ccc(F)cc3F)c2=O)OCCO4)cc1 | – | inactive: 11.1%
14 | O=C(Nc1ccc(C(F)(F)F)cc1)c1cc(S(=O)(=O)N2CCCc3ccccc32)ccc1F | inconclusive: 35.5 µM [cytotoxic, single point] | –
15 | Cc1ccc2nc(-c3cccc(NC(=O)CSc4ccc(Cl)cc4)c3)oc2c1 | – | inactive: 6.55%
16 | CCc1ccc(Nc2nc3c(S(=O)(=O)c4ccc(C)cc4)nnn3c3ccsc23)cc1 | – | inactive: 3.27%
17 | COc1ccc(CN(C(=O)c2cc3ccccc3oc2=O)C2CCS(=O)(=O)C2)cc1 (stereo not drawn) | – | inactive: -3.5%
18 | COc1ccc(NC(=O)CN2CCCN(S(=O)(=O)c3ccc(Br)cc3)CC2)c(OC)c1 | inconclusive: 31.6 µM [cytotoxic, single point] | –
19 | CCN(Cc1ccccc1)C(=O)Cn1c(=O)n(-c2ccc(F)c(Cl)c2)c(=O)c2sc3ccccc3c21 | inconclusive: 39.8 µM [rising, partial curve, poor fit] | –
20 | CCN1CCN(CCCNC(=O)c2cc3c(=O)n(CC)c4ccccc4c3s2)CC1 | inconclusive: 0.1 µM [rising, full curve] | –
21 | Cc1ccc(NC(=O)c2oc3ccc(S(=O)(=O)N4CCCCC4)cc3c2C)cc1C | – | inactive: -5.17%

Row | SMILES | Potency | activity change, negative = cytotoxicity
22 | CCOc1ccccc1Nc1sc(C(=O)c2ccccc2)c(N)c1C(=O)NCCc1ccccc1 | inconclusive: 39.8 µM [rising, single point] | –
23 | O=C(c1ccc(Cl)cc1)N(Cc1ccco1)Cc1ccco1 | – | inactive: -1.25%
24 | O=C(CCS(=O)(=O)c1cc(Br)cc2c1N(C(=O)C1CC1)CC2)N1CCN(c2ccc(F)cc2)CC1 | – | inactive: -25%
25 | Cc1ccc(N(C)C(=O)Cn2cnc3onc(-c4ccc(F)cc4)c3c2=O)cc1C | inconclusive: 39.8 µM [cytotoxic, single point] | –
26 | CCOc1ccccc1CN1CCc2nc(N3CCN(c4ccccc4F)CC3)ncc2C1 | – | inactive: -23.8%
27 | COc1cccc(C(=O)CC2(O)C(=O)Nc3ccc(Cl)cc32)c1 (stereo not drawn) | inconclusive: 39.8 µM [cytotoxic, single point] | –
28 | Cc1cc(Nc2ccccc2C)nc(-n2nc(C)cc2C)n1 | inconclusive: 3.98 µM [cytotoxic, single point] | –
29 | Cc1n[nH]c(C)c1S(=O)(=O)N1CCCC(C(=O)Nc2ccc(Br)cc2)C1 (stereo not drawn) | inconclusive: 39.8 µM [cytotoxic, single point] | –
30 | COc1cc(C2CC(=O)c3c([nH]c(C(=O)OCC4CCCCC4)c3C)C2)cc(OC)c1OC (stereo not drawn) | – | inactive: -11.1%
31 | CCCCN(C)CCCNC(=O)Cn1ncc2c3ccccc3n(Cc3ccccc3F)c2c1=O | inconclusive: 39.8 µM [cytotoxic, single point] | –
32 | COc1ccc(NC(=O)Cn2c(=O)oc3cc(S(=O)(=O)NCc4ccccc4)ccc32)c(OC)c1 | inconclusive: 12.6 µM [cytotoxic, single point] | –
33 | COc1cc(NC(=O)N(Cc2ccco2)C2CCN(C(C)=O)CC2)cc(OC)c1OC | inconclusive: 0.891 µM [cytotoxic, partial curve, poor fit] | –
34 | COc1ccc(-c2cc(C(F)(F)F)nc(-n3nc(C(F)(F)F)cc3C)n2)cc1 | – | inactive: 7.37%
35 | CCc1ccc(-n2c(N3CCN(c4cccc(Cl)c4)CC3)nc3ccccc3c2=O)cc1 | inconclusive: 1.41 µM [rising, partial curve, poor fit] | –
36 | Cc1ccc2nc(-c3c[nH]c4ccccc34)c(Nc3ccccc3C)n2c1 | inconclusive: 0.355 µM [cytotoxic, partial curve, poor fit] | –
37 | Cc1ccc(C(c2ccccc2)c2c(C)[nH]c3ccccc23)s1 (stereo not drawn) | inconclusive: 20 µM [cytotoxic, partial curve, poor fit] | –
38 | O=C(CCS(=O)(=O)c1ccc(Br)cc1)Nc1ccc(Cl)c(C(F)(F)F)c1 | inconclusive: 11.2 µM [cytotoxic, partial curve] | –
39 | COc1ccccc1CCNC(=O)C(=O)NCC(c1cccs1)S(=O)(=O)c1ccccc1 (stereo not drawn) | inconclusive: 8.91 µM [cytotoxic, full curve, poor fit] | –
40 | CCn1c(=O)cc(SCC(=O)NCc2ccccc2OC)c2ccccc21 | inconclusive: 31.6 µM [cytotoxic, single point] | –
41 | Cc1nn(-c2ccc(F)cc2)c(-n2cccc2)c1C(=O)NCCCN1CCN(c2cccc(Cl)c2)CC1 | inconclusive: 31.6 µM [cytotoxic, single point] | –
42 | CCOC(=O)c1sc2ccccc2c1S(=O)(=O)N1CCN(c2cccc(OC)c2)CC1 | inconclusive: 39.8 µM [cytotoxic, single point] | –

Row | SMILES | Potency | activity change, negative = cytotoxicity
43 | O=C(NCc1cccnc1)C(=O)NCC(c1cccnc1)N1CCN(c2ccccc2F)CC1 (stereo not drawn) | – | inactive: 1.64%
44 | O=C(Cn1cc(C(=O)c2ccco2)c2ccccc21)Nc1ccccc1Cl | – | inactive: -0.951%
45 | CCc1cccc(NC(=O)C2CCC(CNS(=O)(=O)c3csc(C(N)=O)c3)CC2)c1 (stereo not drawn) | – | inactive: -19.4%
46 | CSc1ncc(Cl)c(C(=O)Nc2ccc(S(=O)(=O)N3CCCC(C)C3)cc2)n1 (stereo not drawn) | inconclusive: 39.8 µM [cytotoxic, single point] | –
47 | CCOc1ccc(NC(=O)c2c(NCc3sccc3C)sc3c2CCCCC3)cc1 | inconclusive: 39.8 µM [cytotoxic, partial curve, poor fit] | –
48 | N#Cc1c(C(F)(F)F)cc(-c2cccs2)nc1SCC(=O)Nc1ccc(F)cc1 | inconclusive: 39.8 µM [rising, single point] | –
49 | O=C(CSc1nc2c([nH]c3ccccc32)c(=O)n1-c1ccc(F)cc1)NC1CCCCC1 | inconclusive: 35.5 µM [cytotoxic, single point] | –
50 | Cc1c(Cl)cccc1N1C(N)=C(C#N)C(c2cc(CN3CCOCC3)cs2)C2=C1CCCC2=O (stereo not drawn) | – | inactive: -5.57%
51 | O=C(NCc1ccccc1Cl)c1ccc(Nc2nc3ccccc3n3nnnc23)cc1 | – | inactive: -18.2%
52 | CN(C(=O)c1cc2c(=O)n3ccccc3nc2n1C)c1ccccc1 | – | inactive: 0.554%
53 | Cc1ccc(Cl)cc1N1CCN(C(=O)C2CCN(S(=O)(=O)c3ccc4c(c3)oc(=O)n4C)CC2)CC1 | inconclusive: 10 µM [cytotoxic, partial curve] | –
54 | N#C/C(=C/c1ccc(Cl)cc1Cl)c1nc2ccccc2c(=O)[nH]1 | – | inactive: -0.712%
55 | CCOc1ccc(CCNC(=O)c2cccc(-n3c(C)nc4cccnc43)c2)cc1 | inconclusive: 25.1 µM [cytotoxic, partial curve, poor fit] | –
56 | CCOc1ccccc1NC(=O)C1CCN(S(=O)(=O)c2ccc3[nH]c4c(c3c2)CCCCC4)CC1 | – | inactive: -8.9%
57 | Cc1nc(-c2ccc(C)c(S(=O)(=O)N3CCC(C(=O)Nc4ccc(Cl)cc4)CC3)c2)no1 | inconclusive: 17.8 µM [cytotoxic, partial curve] | –
58 | COc1ccc(NC(=O)c2sc3nc4c(cc3c2N)CCCCCC4)cc1OC | inconclusive: 39.8 µM [cytotoxic, single point] | –
59 | O=C(NCc1cccs1)c1ccc(CSc2nc3cccnc3n2Cc2ccccc2)cc1 | inconclusive: 39.8 µM [cytotoxic, partial curve, poor fit] | –
60 | O=C1C2=C(Nc3ccccc3SC2c2ccccc2C(F)(F)F)c2ccccc21 (stereo not drawn) | inconclusive: 11.2 µM [cytotoxic, partial curve] | –
61 | Cc1cc(C)n(-c2nnc(Nc3cc(Cl)ccc3C)c3ccccc23)n1 | – | inactive: -0.321%
62 | O=C(Nc1ccc(F)cc1F)c1cnn(-c2ccc(F)cc2)c1-n1cccc1 | inconclusive: 39.8 µM [rising, partial curve, poor fit] | –
63 | CCOc1ccccc1NC(=O)CN1c2ccccc2S(=O)(=O)c2ccccc21 | inconclusive: 3.98 µM [cytotoxic, partial curve, poor fit] | –

From PubChem BioAssay AID1508642 (National Center for Advancing Translational Sciences (NCATS), 2021)
